Over roughly 18,000 sequences, “TetR repression strength (sort-seq, GFP reporter)” has its median near 0.23; the highest 2% begin near 0.68. The list shows a part of the results.

This assay concerns the target TetR (class B, Tn10) (UniProt P04483). Nature of the assay: TetR repression strength (sort-seq, GFP reporter) (relative to tetO2 = 1); higher = stronger repression. As to conditions: E. coli. In a few lines: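 In LB with 50 µg/mL chloramphenicol, E. coli SIG10-MAX holding a low-copy library with eight randomized operator positions between a constitutive promoter and sfGFP, plus constitutive TetR, grew for 5 h at 37 °C. FACS then sorted 10^6 cells into 13 fluorescence bins for Illumina sequencing of each bin. Repression strength equals the top bin index plus one less the read-weighted mean bin, normalized to the unaltered operator. Values from three independent transformations were averaged when reads were ≥30 in every replicate and the CV was ≤0.5.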
Sequence of UniProt P04483 (P04483 whole entry): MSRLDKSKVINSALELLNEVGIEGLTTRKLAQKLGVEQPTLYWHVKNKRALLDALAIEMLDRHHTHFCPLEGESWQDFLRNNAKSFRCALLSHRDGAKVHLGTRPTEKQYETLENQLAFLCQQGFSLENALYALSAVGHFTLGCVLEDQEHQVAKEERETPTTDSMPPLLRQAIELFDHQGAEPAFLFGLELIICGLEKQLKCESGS
As to TCCCACAGAGTGAATGAGA, the TetR repression strength came to 0.382. As for TCCCATTAAGTTCGTGAGA, the figure is 0.227; as for TCCCACTGAGTTGCCGAGA, 0.505; as for TCCCCAGAAGTTATTGAGA, 0.152. For the sequence TCCCATCGAGTTAAAGAGA, the TetR repression strength came out at 0.528.

The sequence TCCCTTCGAGTAGTTGAGA returned a TetR repression strength of 0.0991. The sequence TCCCGTATAGTGGTTGAGA gave a TetR repression strength of 0.104. In turn, TCCCGGTTAGTAGCAGAGA returned a TetR repression strength of 0.0652. With TCCCGTTGAGTGCCGGAGA, the TetR repression strength came to 0.123. The sequence TCCCACACAGTCCGAGAGA showed a TetR repression strength of 0.599.

With TCCCCGAAAGTCTGGGAGA, the TetR repression strength stood at 0.18. To TCCCAACAAGTCATTGAGA belongs 0.0354.

The sequence TCCCAAGTAGTGAATGAGA registered a TetR repression strength of 0.0797.

Turning to TCCCTGTCAGTAGGAGAGA, the TetR repression strength amounted to 0.197. Turning to TCCCGGGGAGTCGGAGAGA, the TetR repression strength worked out at 0.129. TCCCTGAGAGTGTGAGAGA: the TetR repression strength was found to be 0.309. In turn, TCCCCGTGAGTTGTGGAGA yielded a TetR repression strength of 0.13. As for TCCCCTCCAGTCTCCGAGA, the figure is 0.358. As for TCCCCGGAAGTCTTCGAGA, the figure is 0.22; as for TCCCTTCAAGTGTCAGAGA, 0.303. To TCCCTGAGAGTTGCTGAGA belongs 0.221. On to TCCCGCGGAGTATGGGAGA, for which the TetR repression strength is 0.214. To TCCCTGCAAGTTGATGAGA belongs 0.246; to TCCCGGACAGTGCCCGAGA, 0.655. Regarding TCCCGTGTAGTGCGGGAGA, the TetR repression strength was 0.281.

TCCCATTGAGTATTCGAGA: the TetR repression strength was 0.22. To TCCCAAAGAGTCCATGAGA belongs 0.436; to TCCCACAGAGTGGGGGAGA, 0.178. As for TCCCAACGAGTATATGAGA, the figure is 0.102; as for TCCCGCAAAGTGGGTGAGA, 0.18; as for TCCCCTGCAGTTGGAGAGA, 0.159.

With TCCCAGCTAGTGCGGGAGA, the TetR repression strength was 0.442. To TCCCGAAGAGTGCCGGAGA belongs 0.16. The sequence TCCCGAGGAGTTAAGGAGA yielded a TetR repression strength of 0.295. As for TCCCTGTAAGTCTGAGAGA, the figure is 0.303; as for TCCCGTTTAGTCTACGAGA, 0.136. As for TCCCGGTCAGTAGACGAGA, the figure is 0.109; as for TCCCAATCAGTTCCCGAGA, 0.382; as for TCCCAGTTAGTACGAGAGA, 0.491. Take TCCCTCGCAGTGGGTGAGA: the TetR repression strength worked out at 0.205.

Regarding TCCCTGAGAGTGGTTGAGA, the TetR repression strength is 0.213. As for TCCCGCGCAGTATTGGAGA, the figure is 0.483; as for TCCCAGTTAGTGTAGGAGA, 0.179. To TCCCTGTTAGTCAGAGAGA belongs 0.0876; to TCCCTCTCAGTCCAGGAGA, 0.261; to TCCCTGTCAGTGGGAGAGA, 0.333. As for TCCCAAGCAGTAAGCGAGA, the figure is 0.207; as for TCCCAACTAGTTGCTGAGA, 0.382. TCCCCCCCAGTTTAAGAGA registered a TetR repression strength of 0.313. As for TCCCCCATAGTATGAGAGA, the figure is 0.207. Turning to TCCCTTTGAGTGGCTGAGA, the TetR repression strength was 0.187.

Consider TCCCTTTTAGTTGTGGAGA, for which the TetR repression strength came to 0.291. As to TCCCGGTGAGTTGTCGAGA, the TetR repression strength is 0.355. To TCCCAGATAGTCTCGGAGA belongs 0.121; to TCCCGTGAAGTTTAAGAGA, 0.425.

For TCCCGTTCAGTGAAAGAGA, the TetR repression strength amounted to 0.553. As for TCCCTCGTAGTATGGGAGA, the figure is 0.332; as for TCCCTGGGAGTGGTTGAGA, 0.25. To TCCCAGACAGTTACAGAGA belongs 0.204; to TCCCGGTGAGTCAAAGAGA, 0.338; to TCCCCACAAGTTAAGGAGA, 0.26. The sequence TCCCTAAGAGTGTTCGAGA had a TetR repression strength of 0.324. With TCCCGAGGAGTGGAAGAGA, the TetR repression strength turned out to be 0.122.

TCCCGCAAAGTAGGTGAGA registered a TetR repression strength of 0.239. As for TCCCGTAGAGTCTCAGAGA, the figure is 0.257; as for TCCCGTACAGTCTGAGAGA, 0.191.

Turning to TCCCAATGAGTCACTGAGA, the TetR repression strength turned out to be 0.161.

Sequence TCCCTCCCAGTGACGGAGA had a TetR repression strength of 0.197. As for TCCCGGGGAGTCTGGGAGA, the figure is 0.179; as for TCCCCTTGAGTTAGGGAGA, 0.207; as for TCCCAATCAGTCGGTGAGA, 0.431. Take TCCCAGGGAGTGATGGAGA: the TetR repression strength was found to be 0.471. In turn, TCCCCATAAGTTGTTGAGA registered a TetR repression strength of 0.311. As to TCCCCACTAGTTTCAGAGA, the TetR repression strength was determined as 0.389. To TCCCCGTGAGTAGAAGAGA belongs 0.276.

TCCCTGTGAGTGGGGGAGA had a TetR repression strength of 0.419.

The sequence TCCCACTTAGTGACAGAGA gave a TetR repression strength of 0.396. For TCCCCCGGAGTGGGAGAGA, the TetR repression strength is 0.175. To TCCCGAACAGTCTGGGAGA belongs 0.427; to TCCCAAACAGTTGTTGAGA, 0.207; to TCCCACCCAGTCAGAGAGA, 0.291. TCCCAATTAGTCGTGGAGA returned a TetR repression strength of 0.415. To TCCCAGGAAGTGCAAGAGA belongs 0.473. TCCCACCTAGTCTGCGAGA: the TetR repression strength came to 0.302. On to TCCCTAAGAGTATGAGAGA, for which the TetR repression strength turned out to be 0.21. As for TCCCTAACAGTCTGAGAGA, the figure is 0.182; as for TCCCCATCAGTTGTAGAGA, 0.222; as for TCCCCGAAAGTTTGCGAGA, 0.309. To TCCCGGCGAGTATGTGAGA belongs 0.364.

Consider TCCCAGTTAGTGAGCGAGA, for which the TetR repression strength is 0.15. In the case of TCCCTTCTAGTAATTGAGA, the TetR repression strength amounted to 0.415.

Turning to TCCCGTAGAGTCTTGGAGA, the TetR repression strength worked out at 0.0401. TCCCGGGCAGTTAAGGAGA: the TetR repression strength is 0.196. To TCCCGCGGAGTAGGAGAGA belongs 0.239. TCCCATCAAGTTAATGAGA gave a TetR repression strength of 0.0658. As for TCCCACAGAGTTGCCGAGA, the figure is 0.315; as for TCCCGCCGAGTTGTGGAGA, 0.294; as for TCCCTGTCAGTCGTAGAGA, 0.514. The sequence TCCCGTGAAGTCGGCGAGA displayed a TetR repression strength of 0.135. To TCCCATCTAGTGAGTGAGA belongs 0.316; to TCCCTTAGAGTATCAGAGA, 0.0706.

Turning to TCCCTAGTAGTCTAGGAGA, the TetR repression strength was found to be 0.2. As for TCCCAACTAGTAAGGGAGA, the figure is 0.239; as for TCCCAATCAGTAGGAGAGA, 0.185. TCCCGGGTAGTCGGTGAGA yielded a TetR repression strength of 0.237. As for TCCCGCAAAGTAGCGGAGA, the figure is 0.301; as for TCCCGTGCAGTCAGAGAGA, 0.296.

For the sequence TCCCGAGGAGTGGAGGAGA, the TetR repression strength was 0.184. Turning to TCCCTCACAGTACAGGAGA, the TetR repression strength came to 0.234. Take TCCCAAGAAGTATGCGAGA: the TetR repression strength is 0.135. As for TCCCAGGGAGTACCAGAGA, the figure is 0.244; as for TCCCTTGCAGTATCCGAGA, 0.611; as for TCCCAGTTAGTACGGGAGA, 0.387. As for TCCCATCTAGTGGAGGAGA, the figure is 0.449.

Regarding TCCCAATAAGTCGCAGAGA, the TetR repression strength was determined as 0.162. For the sequence TCCCGACGAGTGCGTGAGA, the TetR repression strength is 0.349. TCCCAGCTAGTGGGTGAGA: the TetR repression strength was determined as 0.0777. As for TCCCTACTAGTAGACGAGA, the TetR repression strength worked out at 0.55.

Consider TCCCCATGAGTCAAGGAGA, for which the TetR repression strength is 0.26. As for TCCCCATGAGTTCAGGAGA, the figure is 0.181. The sequence TCCCGCTTAGTTGAAGAGA had a TetR repression strength of 0.256. Consider TCCCGAAAAGTTGGAGAGA, for which the TetR repression strength came to 0.389.

The sequence TCCCGGTGAGTAACCGAGA gave a TetR repression strength of 0.333. In turn, TCCCGAAGAGTAGGGGAGA displayed a TetR repression strength of 0.219. Take TCCCCTTGAGTCCTCGAGA: the TetR repression strength is 0.426. As for TCCCTTGAAGTGTACGAGA, the figure is 0.242; as for TCCCGGGGAGTGTCCGAGA, 0.125; as for TCCCGTGCAGTGGTCGAGA, 0.0346. In turn, TCCCCGACAGTGGCGGAGA had a TetR repression strength of 0.167. As for TCCCGATCAGTCATAGAGA, the TetR repression strength was 0.609.
